The series relates to ATP. The experiment in a line: switch fluorescence ratio, 500 uM ATP over buffer (Cy3 cluster intensity, sum of 5 cycles each) (fold (ratio)); higher = stronger signal-on switching upon ATP binding; sequences stand for … in TCGTCGGCAGCGTCAGATGTGTATAAGAGACAGTTTTTTTTTTTTTTTTTTTTTTTTT…TC. The settings on record: aptamer strand: ATP DNA aptamer (quencher-CACCTGGGGGAGTATTGCGGAGGAAGG + anchor), 100 nM annealed; ATP concentration: 500 uM; one replicate. In outline: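 The fluorescence ratio divides summed target-cycle Cy3 intensity by summed buffer-cycle Cy3 intensity for each cluster and is averaged per switch-domain sequence. Cy3-labelled switching-strand clusters on a modified Illumina MiSeq flow-cell were annealed to 100 nM quencher-labelled ATP aptamer, then imaged in selection buffer and again after 15 min with 500 uM ATP at 22 °C. Five such cycles were run, with NaOH stripping and re-annealing between them, and clusters outside 100-1000 RFU were excluded.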

Values marked as one replicate rest on one cluster of the flow cell; about a third of the high ones do not repeat.
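Further: ATP exposure 15 min at 22 °C before imaging.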

On to CTCGTACGCG, for which the switch fluorescence ratio came to 0.963. To GGAACAACCC belongs 1.02; to TCGGCTATTC, 1.46.

CAGAAGCGTA: the switch fluorescence ratio was 1.13. As to TACGGAGACC, the switch fluorescence ratio was 1.13. For AGCTGATCCC, the switch fluorescence ratio was found to be 1.05. Next, TCGACGCCTG: 1.22. Next, GGACGCCGCC: 1.05. Next, GCTTCAAAG: 0.988. Consider AACGAAAATA, for which the switch fluorescence ratio stood at 0.978. Next, GCGAGCTCTT: 1.02; ATTGCGTAAT: 1.03. To GCAACGGCTA belongs 1.04; to TTCGAAAGA, 1.02; to TAAGCGGTGG, 0.953. To TGATCCATG belongs 0.991. In the case of ATAGGGTTCG, the switch fluorescence ratio was determined as 1. Next, CCGGGTACCC: 1.04.

Turning to GGCCGGCAAT, the switch fluorescence ratio came to 1.1. Next, AGGAGCCGGT: 1.03. To TGGTTTGCGA belongs 1.01. Next, CAACCCGGC: 1; TAAGGATTTA: 0.95; TCCACCGGGT: 1.65. With AACCCTAAGC, the switch fluorescence ratio came to 1.02. To ATAGAACGGA belongs 1.01; to CTACGAGCTA, 1.2; to CGACCGCTGA, 3.39. To CGCCAATATA belongs 1.33; to CTGGGTCCAA, 1.01. With CATTAATAAA, the switch fluorescence ratio was 0.942.

For the sequence GGTATCGGG, the switch fluorescence ratio was 0.952. Next, ATAGCCTTGT: 0.97; ATTTGACCCC: 1.04. Next, CGGGATGAAG: 1.03; TTTAGTCGTT: 0.98.

On to GGATTTCCAT, for which the switch fluorescence ratio came out at 0.99. With GGTACTGAGG, the switch fluorescence ratio worked out at 1.08. As to GGATTGGTGA, the switch fluorescence ratio was found to be 0.973. To TTTAGACTTG belongs 1.02. With GACATAGGCG, the switch fluorescence ratio was 1.03. Next, ACCTCGTTAA: 0.992. Next, TAAGATCTTC: 1.05. Take CGGGTCCCAA: the switch fluorescence ratio was 1.02. Next, CTTAAGGCTG: 1.03.

On to CATATCCCAA, for which the switch fluorescence ratio amounted to 1.05.

Take GTCTTAACGT: the switch fluorescence ratio was found to be 0.986. Next, ACCTAGATAT: 0.995; TAATTCG: 0.995. To ATTGGCCTGG belongs 1; to AGAGAGAGGG, 1.02; to GCACAGGACA, 1.19. Next, ACAGTGAGAG: 0.957.

For the sequence TCATCGATGG, the switch fluorescence ratio came out at 1.01.

With GTTGACGATT, the switch fluorescence ratio is 1.04. On to TTTCACCTCA, for which the switch fluorescence ratio came to 1.39. As to TCAATCTTCG, the switch fluorescence ratio worked out at 1.12.

As to GGCTCTGCGT, the switch fluorescence ratio amounted to 1.08. To ATCGGTTTGT belongs 1.02; to AAACAGTGGT, 1.02; to TGGGTACTTC, 0.963. Next, GGAAGGGCTA: 0.971; GGCTAAATT: 1.01; ACTAGGTGAA: 1.16.

On to AGTGGTGATT, for which the switch fluorescence ratio was determined as 1. To CAAGCCTTTT belongs 1; to CTGCTACTTG, 1.03; to GGAGCATGAT, 1.32. To ACACTAAGTC belongs 1.07. For the sequence CGTTTATCCT, the switch fluorescence ratio is 1.04.

In the case of CAGTTAGTAG, the switch fluorescence ratio was 1.01. Next, ACCCACGAAC: 1.34. GAGAACATTG: the switch fluorescence ratio was determined as 1.02. Next, ATAGTTCTTG: 1.01; TCGATTGTCC: 1; GGCGTGAAGG: 1.03. Next, GCGGGAATAG: 1.18; GGGTGTCTTA: 1.01; GGGTTGGCA: 1.02.

In the case of AATCCCTGAG, the switch fluorescence ratio amounted to 1.12.

With TCGGAAGCCG, the switch fluorescence ratio was found to be 1.02. Next, CAATGAGAGC: 0.974. Next, AACCGCTTAG: 1.28; AGAGATAGTA: 1.06. Next, AGGCATTTGG: 0.991; ACCTGTGCGA: 1.46. For the sequence TTCATCTTAC, the switch fluorescence ratio worked out at 1.09. Next, CAGACTAATT: 1.04. Next, AGTTGGGTAG: 1.01. To CAAGCTTGGA belongs 0.944; to ACTCGCGGCC, 1.6.

For the sequence CACGGAGATA, the switch fluorescence ratio amounted to 0.987.

Turning to GCATAGCCCG, the switch fluorescence ratio is 1.03. To AGTCCATACC belongs 1.02. Next, GTACGGAGGT: 0.984; ATCCGACTGG: 0.994; GGGGGTGTGC: 1.04. Consider GGTTTGCCCC, for which the switch fluorescence ratio came out at 1.04. Next, AAATTTTTAT: 1.04. To GTTTAGTTGA belongs 0.972; to GTTATCTTG, 0.999; to CTGGTGCTAG, 0.983. Turning to TTGCGGGCTT, the switch fluorescence ratio is 0.978. To AGCATAGGGA belongs 1; to GGGGGTGC, 1.02; to GACTGAAGAC, 1.23. To GCCTTGAAAC belongs 1.01; to TTCACGGATT, 0.977. Next, TATGCTTTCT: 1.01; GGAATCTAGG: 0.982; GTAGAACTGT: 1.05. Consider CGCGCGGCAG, for which the switch fluorescence ratio is 0.98. On to CGCTTGGGTT, for which the switch fluorescence ratio came out at 0.983.

On to CGTGTCTGTA, for which the switch fluorescence ratio amounted to 0.956. Next, AGGGTCCGG: 1.06; CTCTTGGTGG: 0.998. Next, GGTGCCCCCC: 1.05; GGCAGTATTA: 0.987. To AACCGAGCAT belongs 1.8; to GAGCGACGGT, 0.977.
